Assay [1] deals with T1, hGR (Homo sapiens, UniProt P04150).
T1 sequence (P04150 1-777): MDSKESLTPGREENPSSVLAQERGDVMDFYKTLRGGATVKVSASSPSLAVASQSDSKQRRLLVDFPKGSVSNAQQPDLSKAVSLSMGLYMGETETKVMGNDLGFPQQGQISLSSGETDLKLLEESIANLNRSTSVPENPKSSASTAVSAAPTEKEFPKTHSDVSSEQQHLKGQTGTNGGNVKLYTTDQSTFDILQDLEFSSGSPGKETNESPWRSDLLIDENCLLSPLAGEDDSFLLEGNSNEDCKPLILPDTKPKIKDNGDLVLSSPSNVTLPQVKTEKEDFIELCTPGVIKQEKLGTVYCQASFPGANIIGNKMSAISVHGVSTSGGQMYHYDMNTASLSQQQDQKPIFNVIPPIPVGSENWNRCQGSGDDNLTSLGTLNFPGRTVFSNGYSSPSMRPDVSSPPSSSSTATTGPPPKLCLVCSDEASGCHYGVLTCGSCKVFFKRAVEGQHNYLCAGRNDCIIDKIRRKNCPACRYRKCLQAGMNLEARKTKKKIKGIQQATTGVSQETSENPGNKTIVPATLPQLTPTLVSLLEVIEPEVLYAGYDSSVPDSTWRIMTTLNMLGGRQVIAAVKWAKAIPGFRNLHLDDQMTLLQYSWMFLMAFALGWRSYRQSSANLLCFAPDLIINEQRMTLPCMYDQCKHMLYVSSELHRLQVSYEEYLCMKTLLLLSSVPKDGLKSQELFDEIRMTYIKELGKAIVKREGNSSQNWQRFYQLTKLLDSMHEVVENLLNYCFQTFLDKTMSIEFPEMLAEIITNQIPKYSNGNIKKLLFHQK
Briefly: Whole-cell ligand competition assay with [3H]-dexamethasone, HMLN-hGR cells. It counts as binding. The settings on record: HMLN-hGR whole cells, 1 nM [3H]-DEX as tracer, 3 h. Also on record: expressed in transfected cells. As for the experimental part:
(§1) After 3 h, unbound material was aspirated, and cells were washed three times with cold PBS in order to remove additional unbound material. Then, 150 μl of lysis buffer (250 mM Tris phosphate pH 7.8, 0.1% triton X-100) was added and plates were shaked for 5 min. 50 μl of the total cell lysate was mixed with of 50 μl of LSC-cocktail (Emulsifier-Safe, Perkin Elmer) and [3H] bound radioactivity was liquid scintillation counted (MicroBeta trilux, Perkin Elmer). Protein concentration of 50 μl of the total cell lysate was measured by Bio-Rad protein assay and used to normalize bound radioactivity values expressed in dpm. Results were plotted as measured dpm versus concentration of tested compound. […] All the experiments were performed in quadruplicates and in at least three independent experiments.
(§2) For ligand binding assays, dose-response curves were also fitted using GraphPad Prism.

Assay [2] has as its target T2, zfGR (Danio rerio, UniProt Q1XHK0). Briefly: Whole-cell ligand competition assay with [3H]-dexamethasone, UMLN-zfGR cells. It counts as binding, zebrafish. As for the experimental part:
as §1, §2

The target in assay [3] is T2, zfGR. Briefly: Antagonistic activity assessment in presence of 3 nM dexamethasone, UMLN-zfGR cells. It counts as cell-based, zebrafish.
For assay [4], the target named is T1, hGR. Briefly: cell-based. The settings on record: IC50, HMLN-hGR cells, antagonistic activity, with 3 nM dexamethasone.

In general, IC50 refers to the concentration that inhibits the measured activity by half. As for `CSCC(=O)C1C(C)CC2C3CCC4=CC(=O)C=CC4(C)C3(F)C(O)CC21C` (centres unmarked) [RU24782], the half-inhibitory concentration (IC50) in assay [1] stood at 44.3 nM. Regarding `C[C@]12CCC(=O)C=C1CC[C@@H]1[C@@H]2[C@@H](O)C[C@@]2(C)[C@H]1CC[C@]2(O)C(=O)CO` [cortisol], the IC50 in assay [2] is 14.7 nM. Turning to `C[C@]12CCC(=O)C=C1[C@@H]1C[C@@H]1[C@H]1[C@@H]3[C@@H]4C[C@@H]4[C@@]4(CCC(=O)O4)[C@@]3(C)CC[C@@H]12` [drospirenone], in assay [3] (UMLN-zfGR, with 3 nM dexamethasone, % of maximal luciferase activity induced by 100 nM dexamethasone, at 10^-5M), the “% min act (minimal activity)” value was 12 ± 4%. Also, in assay [3] (read-out: IC50), the IC50 stood at 1510 nM. For the compound `CC(=O)S[C@@H]1CC2=CC(=O)CC[C@]2(C)[C@H]2CC[C@@]3(C)[C@@H](CC[C@@]34CCC(=O)O4)[C@H]12` [spironolactone], the 50% inhibitory concentration (IC50) in assay [4] was 5300 nM.

Values taken from article PMC10466050, “A comparative study of human and zebrafish glucocorticoid receptor activities of natural and pharmaceutical steroids” (Frontiers in Endocrinology, 2023).
